In PubChem BioAssay AID1460 (National Center for Advancing Translational Sciences (NCATS), 2008):
About 5,800 (2.1%) of roughly 270,000 compounds were called active. Inconclusive results (about 16%) are left out. The call rests on the fitted dose curve; in most records, active means well fitted inhibition curve with a large enough effect; inconclusive means small, poorly fitted or top-dose-only effect; inactive means flat fitted curve, though single readings scatter. This is a selection; strong and weak results do not stand in their true shares.

Target: Microtubule-associated protein tau (Homo sapiens) (UniProt P10636)
UniProt P10636, sequence (P10636 whole entry, looked up): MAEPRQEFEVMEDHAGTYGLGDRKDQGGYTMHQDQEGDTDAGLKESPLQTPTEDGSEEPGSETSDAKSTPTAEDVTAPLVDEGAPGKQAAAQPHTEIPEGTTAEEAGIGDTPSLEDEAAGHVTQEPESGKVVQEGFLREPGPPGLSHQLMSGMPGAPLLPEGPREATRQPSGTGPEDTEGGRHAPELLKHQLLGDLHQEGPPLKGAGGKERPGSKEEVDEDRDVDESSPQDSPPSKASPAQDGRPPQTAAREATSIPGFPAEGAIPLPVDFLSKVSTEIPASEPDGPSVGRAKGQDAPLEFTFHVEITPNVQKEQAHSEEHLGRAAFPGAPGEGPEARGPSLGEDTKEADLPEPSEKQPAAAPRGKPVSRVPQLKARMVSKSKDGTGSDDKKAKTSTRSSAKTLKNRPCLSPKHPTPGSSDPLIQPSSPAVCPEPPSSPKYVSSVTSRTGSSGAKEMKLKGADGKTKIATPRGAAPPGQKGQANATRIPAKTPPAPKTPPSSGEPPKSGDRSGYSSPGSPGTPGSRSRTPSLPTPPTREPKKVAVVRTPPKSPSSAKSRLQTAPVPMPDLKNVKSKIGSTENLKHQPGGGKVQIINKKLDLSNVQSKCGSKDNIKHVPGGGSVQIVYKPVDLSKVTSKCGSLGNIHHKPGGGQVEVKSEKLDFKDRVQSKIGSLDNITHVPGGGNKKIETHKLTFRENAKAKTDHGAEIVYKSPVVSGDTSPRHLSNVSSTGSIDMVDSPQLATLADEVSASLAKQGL
Experiment: qHTS for Inhibitors of Tau Fibril Formation, Thioflavin T Binding; further: nearly all actives have a fitted effect of over 55% in size
Conditions: recombinant tau K18 P301L, heparin-induced fibrillization, ThT fluorescence; series mostly up to 57.4 µM; activity, negative = inhibition: at the top concentration
Summary of the method: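 ThT emission at 510 nm, taken 1 hr after adding 30 uM dye, quantifies aggregates formed when 20 uM heparin acts on human tau K18 P301L for 6 hr at 37 C.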
On the % scale 0 is the no-effect control and ±100 the full control effect; potency means the concentration at half of the fitted maximal effect.

activity, negative = inhibition, inactive:
O=C(c1ccc(C(F)(F)F)cc1)N1CCC(=O)N([C@H](COCc2ccc(Cl)cc2)Cc2ccccc2)CC1 -15.5%
CC1c2cccc(O)c2C(O)=C2C(=O)[C@]3(O)C(O)=C(C(N)=O)C(=O)C(N(C)C)C3C(O)C21 (some centres not stated) -9.38%
CCC(=O)OCC(=O)[C@@]1(OC(=O)CC)[C@@H](C)C[C@H]2[C@@H]3CCC4=CC(=O)C=C[C@]4(C)[C@@]3(F)[C@@H](O)C[C@@]21C -18%
COC(=O)CCC(=O)OC1(C)C(=O)C=C2C=C(C3CC3)N(CC3CC3)C=C2C1=O (configuration not stated) -12.4% [at 11.5 µM]
C[C@]1(C(=O)NCCc2c[nH]c3ccccc23)C=C[C@@H](Cc2ccccc2)N1C(=O)c1ccccc1 3.63%
COc1ccc2c(c1)C(=O)[C@@H](OC(=O)NCc1ccc3c(c1)OCO3)[C@H](c1ccc(OC)c(Br)c1)O2 -3.34%
CN(Cc1cnc2nc(N)nc(N)c2n1)c1ccc(C(=O)NC(CCC(=O)O)C(=O)O)cc1 (configuration not stated) -6.35%
COc1ccc(Nc2c(-c3ccco3)nc3cccc(C)n23)cc1 -19.6%
COC(=O)CCCC1=CC2=CC(=O)C(C)(OC(=O)c3cccs3)C(=O)C2=CN1Cc1ccco1 (configuration not stated) -15.5% [at 11.5 µM]
CCCCCCN(C(=O)CCCCCN1C(=O)NC(c2ccc(-c3ccccc3)cc2)C(C(=O)OCc2ccccc2)=C1C)C(C(=O)NCCCC)c1cccc(C(=O)OC)c1 (configuration not stated) -8.26%
CC(C)CN1C=C2C(=O)C(C)(OC(=O)CCc3ccccc3)C(=O)C=C2C=C1c1ccc(C#N)cc1 (configuration not stated) 8.8% [at 11.5 µM]
O=C(C1=C[C@@H](c2ccc(Br)cc2)C[C@@H](OCCCCO)O1)N1CCOCC1 -6.46%
Cc1cccc(C(=O)N2CCC(=O)N(C(COCc3ccccc3)Cc3ccccc3)CC2)c1 (configuration not stated) -3.15%
CCCCCCN(C(=O)CCCCCN1C(=O)NC(c2ccc(-c3ccccc3)cc2)C(C(=O)OCc2ccccc2)=C1C)C(C(=O)NCCCC)c1ccc(OCC(=O)OC)cc1 (configuration not stated) -11.5%
CN(C)CCCc1cc(C(=O)Nc2ccc(-c3ccncc3)cc2)ccc1O 1.1%
Nc1nc2c(nc(Br)n2[C@@H]2O[C@H]3COP(=O)(O)O[C@H]3[C@@H]2O)c(=O)[nH]1 -6.61%
Cc1ccccc1/C=C\c1nc2ccccc2c(=O)n1Cc1ccccc1 -6.64%
O=C(Nc1ccccc1C(F)(F)F)N1CCN(c2ccc3nnc(-c4ccc(F)cc4)n3n2)CC1 -7.68%
Clc1ccc(C(c2ccccc2Cl)C(Cl)Cl)cc1 (configuration not stated) -15%
O=C(/C=C/c1ccccc1[N+](=O)[O-])Nc1ccccc1 -15.9%
C=CCN1CCc2cc(O)c(O)cc2C(c2ccccc2)C1 (configuration not stated) -19.4%
NC(=O)C1=C[C@@H](c2ccc(C(F)(F)F)cc2)C[C@@H](OCCCCO)O1 -15.6%

Potency, inactive:
CCCCc1oc2ccccc2c1C(=O)c1cc(I)c(OCCN(CC)CC)c(I)c1
COc1ccc(-c2cc(=O)c3c(OC)c(OC)c(OC)c(OC)c3o2)cc1OC

Potency, active:
O=[N+]([O-])c1cc(Cl)c(O)c2ncccc12 12.6 µM
COc1ccc(-c2ccc(C(=S)N3CCN(C(C)=O)CC3)o2)cc1 28.2 µM
CCc1ccccc1N1CSC2=C(C#N)C(c3ccccc3F)CC(=O)N2C1 (configuration not stated) 28.2 µM
O=C(Nc1ccc([N+](=O)[O-])cc1Cl)c1cc(Cl)ccc1O 7.08 µM
Cc1cccc(C2NC(=O)c3c(sc4c3CCN(C)C4)N2)c1O (configuration not stated) 15.8 µM
Cc1ccc(-c2csc(NNC(=O)c3ccccc3)n2)cc1 12.6 µM
Cc1sc2c3ccsc3ccc2[n+]1C 25.1 µM
COc1ccc(C(=O)/C=C/c2ccc(F)cc2)c(OC(=O)c2ccc([N+](=O)[O-])cc2)c1 10 µM
